{"source": "PubChem BioAssay AID445", "about": "(National Center for Advancing Translational Sciences (NCATS), 2006)", "note": "The campaign covered roughly 110,000 compounds. About 40 (0.04%) were called active. The shares of active, inactive and inconclusive entries below differ from those in the screen. The call rests on the fitted dose curve; in most records, active means well fitted curve in the direction sought with a large enough effect in the signal ratio (not every such curve was filed as active); inconclusive means small, poorly fitted or top-dose-only effect, or a change in a side signal; inactive means flat fitted curve, though single readings scatter; the % refers to the signal ratio. A potency beside an inconclusive call is a rough fit, not a confirmed value."}
{"test": "IkB Signaling; further: potency means the concentration at half of the fitted maximal effect;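 on IkBa stabilization activation: 0% = basal untreated cells and 100% = reference inhibitor full response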", "conditions": "ABC-DLBCL IkBa-CBG/CBR dual luciferase ratio (green luciferase fused to IkBa over red control in OCI-Ly3 lymphoma cells), 4 h; IkBa stabilization activation: at 57.1 µM (top of the series), scaled: untreated 0%, proteasome inhibitor 100% unless noted", "summary_of_the_method": "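Luminescence ratio of IκBα-fused green versus native red beetle luciferase in OCI-Ly3 cells, 4 h post-doxycycline with compound; red signal alone, scaled from basal (0%) to zero light (-100%), flagged nonspecific or cytotoxic effects.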"}
{"molecule": "CC1(C)CC(=O)CC(C2(O)C(=O)N(Cc3ccccc3)c3ccccc32)O1", "note": "(stereo unspecified)", "IkBa stabilization activation": "inconclusive: 9.16% [signal activator]"}
{"molecule": "COc1ccc(C(=O)NCC(c2cccnc2)N2CCc3ccccc32)cc1OC", "note": "(stereo unspecified)", "IkBa stabilization activation": "inconclusive: 7.86% [signal inhibitor]"}
{"molecule": "Cc1cccc(CNC(=O)c2ccc(NC(=O)N3CCSc4ccccc43)cc2)c1", "IkBa stabilization activation": "inconclusive: 1.16% [signal inhibitor]"}
{"molecule": "CCCCN(CCCNC(=O)c1c(C)oc2nc[nH]c(=O)c12)Cc1ccccc1", "IkBa stabilization activation": "inactive: -0.309%"}
{"molecule": "C=C(CO)[C@H]1Cc2c(ccc3c(=O)c4c(oc23)COc2cc(OC)c(OC)cc2-4)O1", "IkBa stabilization activation": "inactive: -1.43% [at 11.4 µM, scaled: untreated 0%, proteasome inhibitor 100%]"}
{"molecule": "COc1ccc(-n2nnnc2SCC(=O)Nc2ccc3c(c2)OCCO3)cc1OC", "IkBa stabilization activation": "inactive: -0.976%"}
{"molecule": "CNC(=O)c1c(NC(=O)c2ccc(S(=O)(=O)N3CCCCC3C)cc2)sc2c1CCC2", "note": "(stereo unspecified)", "IkBa stabilization activation": "inconclusive: 14.1% [signal inhibitor]"}
{"molecule": "COc1ccc(-c2nnc(SCC(=O)N(C)Cc3ccccc3)o2)cc1OC", "IkBa stabilization activation": "inconclusive: -2.7% [signal inhibitor]"}
{"molecule": "O=S(=O)(Nc1cccc(-c2ccc(N3CCCC3)nn2)c1)c1ccc(F)c(C(F)(F)F)c1", "IkBa stabilization activation": "inconclusive: 1.74% [signal inhibitor]"}
{"molecule": "CC1CCN(Cc2ccc(NC(=O)CC3Oc4ccccc4NC3=O)cc2)CC1", "note": "(stereo unspecified)", "IkBa stabilization activation": "inconclusive: 12% [signal inhibitor]"}
{"molecule": "COc1ccc(CNc2ncnc3c2cnn3-c2ccc(C)c(C)c2)cc1", "IkBa stabilization activation": "inactive: -0.937%"}
{"molecule": "COc1ccc(C(=O)Nc2nnc(C(F)(F)F)s2)cc1", "Potency": "inconclusive: 20 µM [signal inhibitor, partial curve]"}
{"molecule": "CCCCSCCCNC(=O)C1CCC(CNS(=O)(=O)c2c(C)cc(C)cc2C)CC1", "note": "(stereo unspecified)", "IkBa stabilization activation": "inconclusive: 2.86% [signal inhibitor]"}
{"molecule": "CC(=O)c1ccc(NC(=O)CCc2c(C)nn(-c3ccc(N4CCCCC4)nn3)c2C)cc1", "IkBa stabilization activation": "inconclusive: 3.57% [signal inhibitor]"}
{"molecule": "Cc1csc2nc(CCNS(=O)(=O)c3ccc(F)cc3)cn12", "IkBa stabilization activation": "inactive: 0.656%"}
{"molecule": "C=CCN1C(=Nc2cccnc2)SCC1(O)c1ccc(C)cc1", "note": "(stereo unspecified)", "IkBa stabilization activation": "inconclusive: -0.254% [signal inhibitor]"}
{"molecule": "O=C(NCCCN1CCN(c2ccccc2F)CC1)c1cc2c(s1)-c1ccccc1OC2", "IkBa stabilization activation": "inconclusive: -1.25% [signal inhibitor]"}
{"molecule": "O=C(O)c1ccc(NC(=O)c2cc3ccccc3o2)cc1", "Potency": "inconclusive: 31.6 µM [signal inhibitor, partial curve]"}
{"molecule": "CCc1ccc(-n2nc(C)c3c(C)cc(=O)n(CC(=O)Nc4ccccc4C(=O)OC)c32)cc1", "IkBa stabilization activation": "inconclusive: -1.84% [signal inhibitor]"}
{"molecule": "CCCCOc1ccc(C(=O)N/C(=C\\c2ccc(Br)cc2)C(=O)NC2CCCCC2)cc1", "IkBa stabilization activation": "inconclusive: 4.95% [signal inhibitor]"}
{"molecule": "O=C(Nc1cccc(F)c1)C1CCN(c2nc3ccccc3[nH]2)CC1", "IkBa stabilization activation": "inconclusive: -0.988% [signal inhibitor]"}
{"molecule": "Cc1cccc(-n2ccnc2SCC(=O)Nc2ccc3c(c2)OCO3)c1", "IkBa stabilization activation": "inconclusive: 1.06% [signal inhibitor]"}
{"molecule": "COC(=O)c1ccc(OCC2c3cc(OC)c(OC)cc3CCN2C(=O)c2ccco2)cc1", "note": "(stereo unspecified)", "IkBa stabilization activation": "inconclusive: 15% [signal inhibitor]"}
{"molecule": "Cc1nc2c3ccccc3nc(NNC(=O)CCC(=O)N3CCN(c4cccc(C(F)(F)F)c4)CC3)n2n1", "IkBa stabilization activation": "inconclusive: 2.31% [signal inhibitor]"}
{"molecule": "CC(C)c1nc(-c2c(N)n(C)c(=O)n(C)c2=O)sc1C(=O)C(C)(C)C", "IkBa stabilization activation": "inactive: 0.184%"}
{"molecule": "COc1cccc(CSCC(=O)O)c1", "IkBa stabilization activation": "inactive: -0.477% [at 11.4 µM, scaled: untreated 0%, proteasome inhibitor 100%]"}
{"molecule": "O=C(C1CCN(S(=O)(=O)c2cccc3nsnc23)CC1)N1CC=C(c2ccccc2)CC1", "IkBa stabilization activation": "inconclusive: 1.63% [signal inhibitor]"}
{"molecule": "Cc1ccc(NC(=O)CSCc2cnn(-c3ccccc3)c2-n2cccc2)c(Cl)c1", "IkBa stabilization activation": "inconclusive: -1.4% [signal inhibitor]"}
{"molecule": "CCc1ccccc1NC(=O)Cn1c(=O)n(-c2ccc(C)c(C)c2)c(=O)c2oc3ccccc3c21", "IkBa stabilization activation": "inconclusive: 5.09% [signal inhibitor]"}
{"molecule": "CCCN(CCC)S(=O)(=O)c1cc(Br)cc2c1N(C(=O)CC)CC2", "IkBa stabilization activation": "inconclusive: 4.26% [signal inhibitor]"}
{"molecule": "Fc1ccc(CSc2ncnc3c2oc2ccccc23)cc1", "IkBa stabilization activation": "inactive: -2.21%"}
{"molecule": "COc1cc(Br)ccc1C1C(C(=O)Nc2ccc(C)cc2C)=C(C)Nc2nnnn21", "note": "(stereo unspecified)", "IkBa stabilization activation": "inconclusive: 3.08% [signal inhibitor]"}
{"molecule": "COc1ccc(CCNc2nc3ccccc3c3nc(-c4cccc(C)c4)nn23)cc1OC", "IkBa stabilization activation": "inconclusive: -3.29% [signal inhibitor]"}
{"molecule": "COc1ccc(S(=O)(=O)NCCc2sc(-c3cccc(C)c3)nc2C)cc1", "IkBa stabilization activation": "inconclusive: 0.331% [signal inhibitor]"}
{"molecule": "Cc1ccc(CCNC(=O)c2cccc(Nc3nc4ccccc4nc3-n3nc(C)cc3C)c2)cc1", "IkBa stabilization activation": "inconclusive: 4.68% [signal inhibitor]"}
{"molecule": "CCc1ccc(-n2nc(C)c3c(C(=O)N4CCN(c5cccc(Cl)c5)CC4)cc(C)nc32)cc1", "IkBa stabilization activation": "inconclusive: -0.271% [signal inhibitor]"}
{"molecule": "Cc1nn(CC(=O)N2CCN(c3cccc(Cl)c3)CC2)c(=O)c2c1sc1ccccc12", "IkBa stabilization activation": "inconclusive: 2.46% [signal inhibitor]"}
{"molecule": "CCOC(=O)c1ccc(NC(=O)CCc2c(C)nc3c(c(C)nn3C(C)(C)C)c2C)cc1", "IkBa stabilization activation": "inconclusive: 4.1% [signal inhibitor]"}
{"molecule": "CCOc1cc(C(=O)OCc2cc(=O)n3nc(C4CC4)sc3n2)cc(OCC)c1OCC", "IkBa stabilization activation": "inconclusive: -1.1% [signal inhibitor]"}
{"molecule": "CC(C)CCNC(=O)c1ccc(Cn2c(SCC(N)=O)nc3ccccc3c2=O)cc1", "IkBa stabilization activation": "inconclusive: -2.52% [signal inhibitor]"}
{"molecule": "COc1cc(OC)c(NC(=O)NCc2cccn2Cc2ccccc2)cc1Cl", "IkBa stabilization activation": "inconclusive: -0.633% [signal inhibitor]"}
{"molecule": "COC(=O)c1c(-c2cccs2)csc1NC(=O)c1cc(OC)c(OC)c(OC)c1", "IkBa stabilization activation": "inconclusive: 3.27% [signal inhibitor]"}
{"molecule": "CC(C)CCNC(=O)c1nn(C)c2c1CSc1ccccc1-2", "IkBa stabilization activation": "inactive: -0.724%"}
{"molecule": "COc1ccc(-c2cn3c(n2)sc2cc(C(=O)Nc4ccc(F)cc4Cl)ccc23)cc1", "IkBa stabilization activation": "inconclusive: 10.8% [signal inhibitor]"}
{"molecule": "CC1CCCN(S(=O)(=O)c2cc(C(=O)NCc3ccccc3Cl)n(C)c2)C1", "note": "(stereo unspecified)", "IkBa stabilization activation": "inconclusive: 2.25% [signal inhibitor]"}
{"molecule": "Cc1ccc(NC(=O)C(=O)NCC(c2cccnc2)N2CCc3ccccc3C2)cc1", "note": "(stereo unspecified)", "IkBa stabilization activation": "inconclusive: 2.4% [signal inhibitor]"}
{"molecule": "C=Cc1ccc(Cn2c(C(=O)O)c(CNCc3ccccc3)c3ccc(OC)cc32)cc1", "IkBa stabilization activation": "inconclusive: 1.07% [signal inhibitor]"}
{"molecule": "CC1=CC(=O)c2ccccc2C1=O", "Potency": "inconclusive: 7.94 µM [signal inhibitor, full curve]"}
{"molecule": "Cc1ccc(C(=O)Nc2nc3c(s2)CCCC3)o1", "IkBa stabilization activation": "inactive: -1.97%"}
{"molecule": "CCN(C(=O)c1cc2cc(Br)cc(OC)c2oc1=O)c1ccccc1", "IkBa stabilization activation": "inconclusive: 3.97% [signal inhibitor]"}
{"molecule": "CCCCCOC(=O)c1[nH]c2c(c1C)C(=O)CC(c1ccco1)C2", "note": "(stereo unspecified)", "IkBa stabilization activation": "inconclusive: 10.1% [signal activator]"}
{"molecule": "CCn1c(C)nc2cc(-c3nc4n(n3)Cc3ccccc3-4)ccc21", "IkBa stabilization activation": "inactive: 0.473%"}
{"molecule": "O=C(NC1CCCCCC1)c1ccc(CS(=O)c2ccc(Br)cc2)o1", "note": "(stereo unspecified)", "IkBa stabilization activation": "inconclusive: 2.16% [signal inhibitor]"}
{"molecule": "COc1cccc(C2c3c(-c4ccccc4O)n[nH]c3C(=O)N2Cc2cccnc2)c1", "note": "(stereo unspecified)", "IkBa stabilization activation": "inconclusive: 0.976% [signal inhibitor]"}
{"molecule": "Cn1c(SCCCC(=O)c2ccccc2)nnc1-c1ccncc1", "IkBa stabilization activation": "inactive: -0.852%"}
{"molecule": "Cc1nc2cc(NC(=O)N3c4ccccc4CC3C)ccc2o1", "note": "(stereo unspecified)", "IkBa stabilization activation": "inactive: 1.92%"}
{"molecule": "CCOc1ccc(CNC(=O)C2=Cc3cc(Br)ccc3OC2)cc1OC", "IkBa stabilization activation": "inconclusive: 3.35% [signal inhibitor]"}
{"molecule": "N=C1[C@@H](O)[C@]2(I)c3ccccc3N3C(=N)[C@H](O)[C@@H]4c5ccccc5N1[C@@H]4[C@@H]32", "Potency": "inconclusive: 1.26 µM [signal inhibitor, partial curve]"}
{"molecule": "COc1ccc(Cl)cc1NC(=O)CSc1nc(=O)[nH]c2c1CCCC2", "IkBa stabilization activation": "inconclusive: 2.79% [signal inhibitor]"}
{"molecule": "Cc1noc(C)c1COc1cccc(C(=O)OCCOc2ccc(F)cc2)c1", "IkBa stabilization activation": "inconclusive: 0.582% [signal inhibitor]"}
{"molecule": "CC(=O)N1c2c(cc(Br)cc2S(=O)(=O)NCc2ccccc2Cl)CC1C", "note": "(stereo unspecified)", "IkBa stabilization activation": "inconclusive: -1.62% [signal inhibitor]"}
{"molecule": "COc1ccc(NC(=O)c2cc(C)nc3c2c(C)nn3-c2cccc(Cl)c2C)c(OC)c1", "IkBa stabilization activation": "inconclusive: 0.295% [signal inhibitor]"}
{"molecule": "Cc1ccc2oc(-c3ccc(NC(=O)c4cccc(F)c4)c(C)c3)nc2c1", "Potency": "inconclusive: 12.6 µM [signal inhibitor, partial curve]"}
{"molecule": "CN(C)c1ccc(-c2ccc3ncnc(N(C)Cc4ccco4)c3c2)cc1", "IkBa stabilization activation": "inactive: 1.84% [at 11.4 µM, scaled: untreated 0%, proteasome inhibitor 100%]"}
{"molecule": "COc1cc(Cl)c(NC(=O)CN(C)S(=O)(=O)c2ccc3c(c2)CCCC(=O)N3)c(OC)c1", "IkBa stabilization activation": "inconclusive: -1.06% [signal inhibitor]"}
{"molecule": "COc1ccccc1CN1CC[C@@]2(CCCN(C(=O)c3cc(C(F)(F)F)cc(C(F)(F)F)c3)C2)C1", "IkBa stabilization activation": "inconclusive: 8.46% [signal activator] [at 11.4 µM, scaled: untreated 0%, proteasome inhibitor 100%]"}
